± gives the standard deviation. The full ranking holds about 6,600 sequences; the median of “pre-steady-state target cleavage rate” is about 0.07, and the highest 2% start at about 0.72. The entries are a selection whose mix differs from that of the whole data set.

The experiment has as its system MIWI (PIWIL1) piRISC loaded with Kctd7 piRNA (30 nt). Description: pre-steady-state target cleavage rate (min^-1); MIWI and MILI are mouse PIWI proteins and EfPiwi is from a freshwater sponge; tags in brackets are library labels; higher = faster piRNA-guided slicing of the target. As to conditions: guide: Kctd7 piRNA 5'p-UGUUAAUCUCUCAGAGAAGGUGACAGUGAU; auxiliary factor: 500 nM mouse GTSF1. In short, it runs like this: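 Cleave-'n-Seq used a transcribed, DNA-blocked target RNA library at 0.1 nM and active affinity-purified piRISC with one synthetic guide at 1 nM, with or without 500 nM GTSF1 partner protein, in HEPES–potassium acetate buffer at 33 °C for 0–8 or 0–960 min. Uncleaved targets were sequenced and normalised to depth and to weakly complementary targets, and three trials were pooled with k3 capped at 0.0001 min^-1. The pre-steady-state cleavage rate was estimated by a burst-and-steady-state fit.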
Turning to UAGUCUGUCAGCUUCUCAGAGAGAUUAACA, the “pre-steady-state target cleavage rate” value stood at 0.226 ± 0.015.
With UAGUGACAGUGGAUCUCUGAGAGAUUAUACA the figure was below 0.0001.
Take UAGUGACAGACCUUCUCUGAGAGAUUAAA: the “pre-steady-state target cleavage rate” value is 0.0488 ± 0.011.
With UUCACUCUCACCUUCUCAGAGAGAUUAACA the figure was 0.41 ± 0.021; with AUCAAUGUCACCUUCUCUGAGAGAUUAACA, 0.672 ± 0.03.
UAGUGACACACCUUCUGUGAGAGAUAAACA: the “pre-steady-state target cleavage rate” value was determined as 0.162 ± 0.024.
Next, UAGACUGUCAGCUUCUCUGACAGAUUAACA: 0.00471 ± 0.0038; UUCACUCUCACCUUCUCUGAGAGAUUUUGA: 0.062 ± 0.013.
For the sequence UAGACUGUCACCUUACUCUGAGAGAUUAACA, the “pre-steady-state target cleavage rate” value is 0.621 ± 0.045.
With UUCACUGUCACCUUCUCUGAGAUAUUAACA the figure was 0.251 ± 0.023; with UAGUGAGUCACCUUAUCUGAGAGAUUAACA, 0.363 ± 0.02.
Next, UAGUCACACACCUUCUCUGAGAGAUUUUGA: 0.0545 ± 0.014.
With UAGACUGUCACCUUCUCUGAGAGUAUUAACA the figure was 0.442 ± 0.018.
In the case of AUCAGUGUCACCUUCUCUGAGAGUUUAACA, the “pre-steady-state target cleavage rate” value came out at 0.446 ± 0.071.
In the case of UAGUGACAGUCCAUCUCUGAGAGAUUAUGA, the “pre-steady-state target cleavage rate” value is below 0.0001.
Next, AUCACUCUCACCAUCUCUGAGAGAUUAACA: 0.473 ± 0.027; AUCACUGUCACCUUCUCUCAGACAUUAACA: 0.0609 ± 0.0057; UAGUCACUCACCUUCUCUGAGAGAUUAUGA: 0.0544 ± 0.017.
Next, UUCACUGUCACCUUCUCUGAGAGAUUUACA: 0.418 ± 0.052.
With UAGUGAGUCACCUACUCUGAGAGAUUAACA the figure was 0.589 ± 0.039.
On to UAGUGAGUCACCAUCACUGAGAGAUUAACA, for which the “pre-steady-state target cleavage rate” value stood at 0.518 ± 0.048.
With AUCACUGUCUCCUUCUCUGAGAGAUAAACA the figure was 0.275 ± 0.04; with UAGAGUGUCACCUUCUCUGAGUGAUUAACA, 0.0315 ± 0.0059.
With “UAGUGACACACCUUCUCUGAGAGAUUAACU [g2:g22:cont:t1U]” the figure was 0.3 ± 0.037; with UAGUCUGUCACCUACUCUGAGACAUUAACA, 0.0747 ± 0.0095.
With UAGUGACAGUGCUUCUCUGAUAGAUUAACA the figure was 0.0192 ± 0.0036.
On to UAGUGACAGUGGUUCUCUGGGAGAUUAACA, for which the “pre-steady-state target cleavage rate” value was below 0.0001.
With UAGUGUGUCUCCAUCUCUGAGAGAUUAACA the figure was 0.176 ± 0.014; with UAGUCUGUCACCUUCUGAGAGAGAUUAAGA, 0.0176 ± 0.0069.
With UAGACUGUCACCAUCUCUCAGAGAUUAACA the figure was 0.041 ± 0.0063; with AUCACUGUCACCUAGUCUGAGAGAUUUUGA, 0.0964 ± 0.023; with UAGUGACAGUCCUUCUCUGACAGAAUAACA, below 0.0001.
With UACACUGUCACCAUCACUGAGAGAUUAACA the figure was 0.372 ± 0.023.
For the sequence UAGUGAGUCACCGUCUCUGAGAGAUUAACA, the “pre-steady-state target cleavage rate” value was found to be 0.469 ± 0.049.
With UAGUCUGUCAGCUUCUCUGUGAGAUUAACA the figure was 0.246 ± 0.013; with UAGUGAGUCACCUUCUCUGAGUGUUUAACA, 0.0333 ± 0.0054.
Take UAGACACACACCUUCUCUGAGAGAUUAACA: the “pre-steady-state target cleavage rate” value was 0.502 ± 0.033.
In the case of UAGUGUGUCACCUUCUCUGAGAGUAAAACA, the “pre-steady-state target cleavage rate” value is 0.194 ± 0.038.
Next, UUCACUGACACCAUCUCUGAGAGAUUAACA: 0.543 ± 0.027; UAGUGAGUCACCUUCUCUGAGAGAUAAAGA: 0.0438 ± 0.017; UAGACUGACACCUUCACUGAGAGAUUAACA: 0.371 ± 0.022.
Next, UAGUGUGUCACCUUGUCUGAGAGUUUAACA: 0.0501 ± 0.01; UUCACUGUCACCUUCUCUGAGACGAUUAACA: 0.0506 ± 0.012.
Take UAGACUGUGACCUUCACUGAGAGAUUAACA: the “pre-steady-state target cleavage rate” value is 0.328 ± 0.029.
On to UACACUGACACGUUCUCUGAGAGAUUAACA, for which the “pre-steady-state target cleavage rate” value stood at 0.483 ± 0.032.
With UUCACUGUCACCUUCUCUUAGAGAUUAACA the figure was 0.33 ± 0.015; with UUCACUGUCACCUUCUCUGACAGAUAAACA, 0.0294 ± 0.0076; with UUCACUGUCACCUUCUCUGAGUGUUUAACA, 0.0344 ± 0.0057.
For the sequence UAGUGAGUCAGCUUCUCUGAGAGUUUAACA, the “pre-steady-state target cleavage rate” value is 0.212 ± 0.036.
In the case of UAGUCUGUCACCUUCUCUGAGAUGAUUAACA, the “pre-steady-state target cleavage rate” value came out at 0.0171 ± 0.0058.
Next, UAGUGACACACCUUCUCUGAGAGAUUGACA: 0.287 ± 0.041; UUCAACUGUCACCUUCUCUGAGAGAUUAACA: 0.733 ± 0.039; UAGUGACUCACCUCUCUGAGAGAUUAACA: 0.0246 ± 0.0051.
Next, UUCACUGUCACCUACUCUGAGAGAUUAUCA: 0.326 ± 0.045.
With UACACUGUCACCAUCUGUGAGAGAUUAACA the figure was 0.378 ± 0.032.
Take UAGACUGUCACCUUCUCUGAGAGAUUAGCA: the “pre-steady-state target cleavage rate” value worked out at 0.271 ± 0.03.
Next, UUCUGUGUCACCUUCUCUGAGAGAUAUUGA: 0.0674 ± 0.017.
Next, UAGUGAGUCACCUUCUCUGAGAGCUUAACA: 0.247 ± 0.032.
As for AUCACUGUCACGUUCUCUGAGAGAUAAACA, the “pre-steady-state target cleavage rate” value worked out at 0.311 ± 0.036.
Next, UAGUGACACACCUUCUCUGAGAAAUUAACA: 0.235 ± 0.038; UAGUGACAGAGGUUCUCUGAGAGAUUAUGA: below 0.0001.
As for UUCAUCUGUCACCUUCUCUGAGAGAUUAACA, the “pre-steady-state target cleavage rate” value came out at 0.706 ± 0.03.
On to UUCACUGUCAGCUUGUCUGAGAGAUUAACA, for which the “pre-steady-state target cleavage rate” value came out at 0.658 ± 0.03.
With UAGUGACACACCUUCUCAGAGUGAUUAACA the figure was 0.00558 ± 0.0037; with UAGUGUGUCCCCUUCUCUGAGAGAUUAACA, 0.642 ± 0.042; with UAGUGUGUGACGUUCUCUGAGAGAUUAACA, 0.398 ± 0.025.
With UAGUGAGUCACCUUCUGUGAGAGAAUAACA, the “pre-steady-state target cleavage rate” value was 0.109 ± 0.015.
With UAGACUGCUCACCUUCUCUGAGAGAUUAACA the figure was 0.717 ± 0.047; with UACACUGUGUCCUUCUCUGAGAGAUAUUGA, 0.00581 ± 0.0037.
With UAGUGUGUCACCUUCCUGAGAGAUUAACA the figure was 0.0693 ± 0.019; with UACACUGUCACGAUCUCUGAGAGAUUAACA, 0.496 ± 0.04; with “UAGUGACAGUGGAACUCUGAGUCUAAUUGA [g10:g16:cont:t1A]”, 0.0444 ± 0.023.

(Values after the supplement of paper PMC10338343.)
